The source of these data is the supplement of paper PMC4166925.

± gives the standard deviation of the averaged measurements. In all, about 33,000 sequences were measured (“E-score (dimensionless, -0.5 to 0.5)”: median about -0.046, highest 2% from about 0.36 on). The list shows a part of the results.
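Note: protein at 200 nM in PBS on universal double-stranded arrays.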

The experiment concerns T1, SpTbr T-box DNA-binding domain (GST fusion).
T1 sequence: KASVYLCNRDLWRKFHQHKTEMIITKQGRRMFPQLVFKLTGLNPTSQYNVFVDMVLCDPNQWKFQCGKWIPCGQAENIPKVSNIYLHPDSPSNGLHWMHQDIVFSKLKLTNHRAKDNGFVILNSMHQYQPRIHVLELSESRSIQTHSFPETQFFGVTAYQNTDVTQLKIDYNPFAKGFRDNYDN
Nature of the experiment: PBM E-score of 8-mer (E-score (dimensionless, -0.5 to 0.5)); Tbr is Tbrain of the sea star Patiria miniata (Pm) or the sea urchin Strongylocentrotus purpuratus (Sp); higher = stronger binding preference; most listed sequences are background and not binding sites. Particulars: the construct has about 5 more residues each side. Here is the method:
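Universal protein-binding microarray (Agilent AMADID 016060, 60-bp probes with a 35-bp variable region) incubated with 200 nM GST-fused Strongylocentrotus purpuratus Tbr T-box DNA-binding domain (residues 362-554) in PBS pH 7.5. Scored for every ungapped 8-mer (given with its reverse complement) as E-score (range -0.5 to 0.5; >0.45 counts as bound) and Z-score of median probe intensity. Two replicate arrays (datasets 1 and 2).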
For the sequence CGACGTTA, the “PBM E-score of 8-mer” value is -0.0348 ± 0.047.

As to ACTACGGC, the “PBM E-score of 8-mer” value is -0.00424 ± 0.021.

Consider GACGCGGC, for which the “PBM E-score of 8-mer” value was -0.0197 ± 0.021.

For the sequence CAAGCGGC, the “PBM E-score of 8-mer” value was found to be 0.0648 ± 0.041.

As to ACTTGACA, the “PBM E-score of 8-mer” value came out at 0.347 ± 0.0064.

CTCTTTAC: the “PBM E-score of 8-mer” value was -0.0208 ± 0.066.

As for ATTGACCC, the “PBM E-score of 8-mer” value is 0.00364 ± 0.0032.

Take ACTCAACG: the “PBM E-score of 8-mer” value was -0.043 ± 0.033.

With ACTTAAGG, the “PBM E-score of 8-mer” value is -0.0537 ± 0.012.

For the sequence ACGGCGCT, the “PBM E-score of 8-mer” value is 0.191 ± 0.023.

Regarding ATAGGTGG, the “PBM E-score of 8-mer” value amounted to 0.268 ± 0.021.

GGCTCATA: the “PBM E-score of 8-mer” value was -0.195 ± 0.047.

As to CATTCCGA, the “PBM E-score of 8-mer” value was found to be 0.0408 ± 0.0047.

CTGATAGC: the “PBM E-score of 8-mer” value was -0.0157 ± 0.028.

Consider CAAATCAG, for which the “PBM E-score of 8-mer” value is -0.0928 ± 0.068.

Consider GGGGCCCA, for which the “PBM E-score of 8-mer” value is -0.133 ± 0.067.

For TACGACGA, the “PBM E-score of 8-mer” value worked out at 0.0259 ± 0.0024.

ACCCCAAA: the “PBM E-score of 8-mer” value is -0.0614 ± 0.014.

With CCTAAATA, the “PBM E-score of 8-mer” value is -0.198 ± 0.055.

On to AGCACCTC, for which the “PBM E-score of 8-mer” value was found to be 0.4014 ± 0.004.

In the case of AACAAGGG, the “PBM E-score of 8-mer” value was -0.00315 ± 0.054.

In the case of ATATTTCA, the “PBM E-score of 8-mer” value was determined as 0.0717 ± 0.045.

Regarding CTCCCAAA, the “PBM E-score of 8-mer” value is -0.169 ± 0.0039.

On to AAGATCTG, for which the “PBM E-score of 8-mer” value is -0.153 ± 0.021.

With CGCATCAA, the “PBM E-score of 8-mer” value is -0.0381 ± 0.0058.

As for AAAATGGT, the “PBM E-score of 8-mer” value is -0.0435 ± 0.06.

For the sequence AAACAAAC, the “PBM E-score of 8-mer” value was -0.228 ± 0.044.

As for TGTAGGAA, the “PBM E-score of 8-mer” value stood at 0.0214 ± 0.022.

Consider ATGTCCTA, for which the “PBM E-score of 8-mer” value is -0.273 ± 0.07.

Turning to ACATCCCT, the “PBM E-score of 8-mer” value is -0.04 ± 0.0046.

As to AAATACCG, the “PBM E-score of 8-mer” value is -0.206 ± 0.044.

Consider CACGTCCC, for which the “PBM E-score of 8-mer” value came to 0.245 ± 0.049.

Regarding AGGTTGAA, the “PBM E-score of 8-mer” value is -0.223 ± 0.043.

As for AAGAGCTG, the “PBM E-score of 8-mer” value is -0.0319 ± 0.028.

As for TTATAGAA, the “PBM E-score of 8-mer” value is -0.26 ± 0.047.

CGCCACAG: the “PBM E-score of 8-mer” value is 0.0527 ± 0.03.

AGGCCCAA: the “PBM E-score of 8-mer” value is -0.279 ± 0.018.

As to CCGAAATA, the “PBM E-score of 8-mer” value was 0.0489 ± 0.0096.

With CCTGTTTC, the “PBM E-score of 8-mer” value is -0.151 ± 0.011.

As to ATTGAAAG, the “PBM E-score of 8-mer” value is -0.0924 ± 0.022.

On to AGCAGTCA, for which the “PBM E-score of 8-mer” value was 0.0234 ± 0.013.

AAACCGTG: the “PBM E-score of 8-mer” value was 0.148 ± 0.012.

Turning to ACTTTTGG, the “PBM E-score of 8-mer” value stood at 0.0233 ± 0.0029.

As for TATCCATA, the “PBM E-score of 8-mer” value was -0.208 ± 0.0057.

For the sequence CCTGCAGC, the “PBM E-score of 8-mer” value is -0.0772 ± 0.032.

In the case of CCGTTACA, the “PBM E-score of 8-mer” value was 0.00715 ± 0.011.

For the sequence GCCGCATA, the “PBM E-score of 8-mer” value is -0.0209 ± 0.065.

Turning to TATCGGGA, the “PBM E-score of 8-mer” value was found to be 0.0387 ± 0.084.

Consider AGTTAGTG, for which the “PBM E-score of 8-mer” value is 0.0353 ± 0.021.

Take AAATAGAT: the “PBM E-score of 8-mer” value was -0.268 ± 0.054.

With TGCCAACA, the “PBM E-score of 8-mer” value stood at 0.333 ± 0.0035.

ACCGGCGA: the “PBM E-score of 8-mer” value was -0.13855 ± 0.00012.

For CTCTATAA, the “PBM E-score of 8-mer” value was -0.0438 ± 0.02.

As to ATAAGCAC, the “PBM E-score of 8-mer” value was determined as 0.00483 ± 0.072.

In the case of CATATAGG, the “PBM E-score of 8-mer” value stood at 0.0518 ± 0.0081.

For TACTGACA, the “PBM E-score of 8-mer” value is 0.132 ± 0.0027.

Regarding ACTGTGAT, the “PBM E-score of 8-mer” value was 0.242 ± 0.0029.

Regarding AAACTATC, the “PBM E-score of 8-mer” value is -0.145 ± 0.1.

For ACATCATC, the “PBM E-score of 8-mer” value was -0.149 ± 0.06.

Turning to CTGGGTGC, the “PBM E-score of 8-mer” value amounted to 0.209 ± 0.037.

For the sequence GGCCAATA, the “PBM E-score of 8-mer” value is -0.125 ± 0.0026.

CGATTCCG: the “PBM E-score of 8-mer” value was -0.0784 ± 0.06.

For the sequence CTCGTAGA, the “PBM E-score of 8-mer” value was -0.325 ± 0.04.

Turning to AGCTTACA, the “PBM E-score of 8-mer” value amounted to 0.115 ± 0.012.

On to TAGCGGCA, for which the “PBM E-score of 8-mer” value was determined as 0.115 ± 0.063.

As for GGGAGGAA, the “PBM E-score of 8-mer” value is -0.2 ± 0.0029.

For AAACCAGC, the “PBM E-score of 8-mer” value was -0.063 ± 0.055.

With GAAGTGGA, the “PBM E-score of 8-mer” value was -0.0393 ± 0.019.

With GGAGTATA, the “PBM E-score of 8-mer” value was -0.277 ± 0.051.

Turning to GACCTCCA, the “PBM E-score of 8-mer” value was -0.196 ± 0.041.

TCCGGCGA: the “PBM E-score of 8-mer” value was -0.0986 ± 0.032.

In the case of CCGGACAA, the “PBM E-score of 8-mer” value is -0.149 ± 0.026.

Consider AACGCGGC, for which the “PBM E-score of 8-mer” value was found to be 0.0574 ± 0.041.

Take CGGTCTTC: the “PBM E-score of 8-mer” value was -0.0729 ± 0.0042.

In the case of GTGATCGA, the “PBM E-score of 8-mer” value came to 0.175 ± 0.039.

ATGAATGA: the “PBM E-score of 8-mer” value was -0.1848 ± 0.0014.

Turning to GGAAAGCC, the “PBM E-score of 8-mer” value is -0.185 ± 0.019.

Regarding CCCATGAG, the “PBM E-score of 8-mer” value is -0.103 ± 0.0073.

For GTCCCTTA, the “PBM E-score of 8-mer” value is -0.1 ± 0.0091.

Turning to ATTGGCCA, the “PBM E-score of 8-mer” value is -0.0538 ± 0.026.

For TGGTGCAA, the “PBM E-score of 8-mer” value is 0.214 ± 0.0077.

As for GAGAGCTA, the “PBM E-score of 8-mer” value was -0.0489 ± 0.017.

For the sequence AACGACGA, the “PBM E-score of 8-mer” value was determined as 0.145 ± 0.018.

For GAAGATGA, the “PBM E-score of 8-mer” value came out at 0.183 ± 0.031.

As to ACCGTACA, the “PBM E-score of 8-mer” value is -0.159 ± 0.05.

For the sequence GTACGCCA, the “PBM E-score of 8-mer” value is -0.202 ± 0.0083.

For the sequence CTGACTAC, the “PBM E-score of 8-mer” value is -0.224 ± 0.031.

Regarding ACTAAACG, the “PBM E-score of 8-mer” value is -0.214 ± 0.039.

As to GCATGGCA, the “PBM E-score of 8-mer” value was -0.0508 ± 0.02.

Turning to CACCGCAC, the “PBM E-score of 8-mer” value came to 0.0824 ± 0.029.

Take GCGAAACC: the “PBM E-score of 8-mer” value came out at 0.307 ± 0.0033.

For ACGGGTAA, the “PBM E-score of 8-mer” value is 0.000385 ± 0.077.

For the sequence CAGCTTGG, the “PBM E-score of 8-mer” value is -0.00698 ± 0.044.

Consider CTAACCTC, for which the “PBM E-score of 8-mer” value was -0.158 ± 0.041.

Turning to GAGGCCCC, the “PBM E-score of 8-mer” value was -0.296 ± 0.057.

As for AGGCCCAT, the “PBM E-score of 8-mer” value is -0.319 ± 0.025.

AAAGGAAC: the “PBM E-score of 8-mer” value was -0.038 ± 0.014.

With GCGCCCAA, the “PBM E-score of 8-mer” value was found to be 0.0396 ± 0.066.

Turning to TCTATAGA, the “PBM E-score of 8-mer” value was -0.374 ± 0.033.

Consider CCGAGAGC, for which the “PBM E-score of 8-mer” value was -0.0317 ± 0.13.

On to ATTAGCAA, for which the “PBM E-score of 8-mer” value is -0.0446 ± 0.11.

AAAGGTTA: the “PBM E-score of 8-mer” value was -0.0434 ± 0.072.

In the case of ACCGCCGC, the “PBM E-score of 8-mer” value came out at 0.0379 ± 0.064.

Regarding ACCGCGTC, the “PBM E-score of 8-mer” value came out at 0.117 ± 0.036.

With TATCGTAA, the “PBM E-score of 8-mer” value is -0.0909 ± 0.038.

As for AAAAGCAG, the “PBM E-score of 8-mer” value was -0.0199 ± 0.017.

With GGTGATAC, the “PBM E-score of 8-mer” value turned out to be 0.221 ± 0.028.

Regarding ATAAGGAC, the “PBM E-score of 8-mer” value was -0.219 ± 0.013.

CAACGGTA: the “PBM E-score of 8-mer” value is -0.116 ± 0.029.
